Data from PubChem BioAssay AID1347165 (National Center for Advancing Translational Sciences (NCATS), 2019).
In all, about 220,000 compounds went through this assay and about 5,700 (2.6%) were called active. The shares of active, inactive and inconclusive entries below differ from those in the screen. Calls come from the whole dose curve; as a rule, active = well fitted inhibition curve with a large enough effect; inconclusive = small, poorly fitted or top-dose-only effect; inactive = no such curve, though single readings can be large or run the other way. Potencies of inconclusive entries are doubtful fits and often do not repeat.

Target: Lysine-specific demethylase 5B (Homo sapiens) (UniProt Q9UGL1)
UniProt Q9UGL1, sequence (Q9UGL1 whole entry, looked up): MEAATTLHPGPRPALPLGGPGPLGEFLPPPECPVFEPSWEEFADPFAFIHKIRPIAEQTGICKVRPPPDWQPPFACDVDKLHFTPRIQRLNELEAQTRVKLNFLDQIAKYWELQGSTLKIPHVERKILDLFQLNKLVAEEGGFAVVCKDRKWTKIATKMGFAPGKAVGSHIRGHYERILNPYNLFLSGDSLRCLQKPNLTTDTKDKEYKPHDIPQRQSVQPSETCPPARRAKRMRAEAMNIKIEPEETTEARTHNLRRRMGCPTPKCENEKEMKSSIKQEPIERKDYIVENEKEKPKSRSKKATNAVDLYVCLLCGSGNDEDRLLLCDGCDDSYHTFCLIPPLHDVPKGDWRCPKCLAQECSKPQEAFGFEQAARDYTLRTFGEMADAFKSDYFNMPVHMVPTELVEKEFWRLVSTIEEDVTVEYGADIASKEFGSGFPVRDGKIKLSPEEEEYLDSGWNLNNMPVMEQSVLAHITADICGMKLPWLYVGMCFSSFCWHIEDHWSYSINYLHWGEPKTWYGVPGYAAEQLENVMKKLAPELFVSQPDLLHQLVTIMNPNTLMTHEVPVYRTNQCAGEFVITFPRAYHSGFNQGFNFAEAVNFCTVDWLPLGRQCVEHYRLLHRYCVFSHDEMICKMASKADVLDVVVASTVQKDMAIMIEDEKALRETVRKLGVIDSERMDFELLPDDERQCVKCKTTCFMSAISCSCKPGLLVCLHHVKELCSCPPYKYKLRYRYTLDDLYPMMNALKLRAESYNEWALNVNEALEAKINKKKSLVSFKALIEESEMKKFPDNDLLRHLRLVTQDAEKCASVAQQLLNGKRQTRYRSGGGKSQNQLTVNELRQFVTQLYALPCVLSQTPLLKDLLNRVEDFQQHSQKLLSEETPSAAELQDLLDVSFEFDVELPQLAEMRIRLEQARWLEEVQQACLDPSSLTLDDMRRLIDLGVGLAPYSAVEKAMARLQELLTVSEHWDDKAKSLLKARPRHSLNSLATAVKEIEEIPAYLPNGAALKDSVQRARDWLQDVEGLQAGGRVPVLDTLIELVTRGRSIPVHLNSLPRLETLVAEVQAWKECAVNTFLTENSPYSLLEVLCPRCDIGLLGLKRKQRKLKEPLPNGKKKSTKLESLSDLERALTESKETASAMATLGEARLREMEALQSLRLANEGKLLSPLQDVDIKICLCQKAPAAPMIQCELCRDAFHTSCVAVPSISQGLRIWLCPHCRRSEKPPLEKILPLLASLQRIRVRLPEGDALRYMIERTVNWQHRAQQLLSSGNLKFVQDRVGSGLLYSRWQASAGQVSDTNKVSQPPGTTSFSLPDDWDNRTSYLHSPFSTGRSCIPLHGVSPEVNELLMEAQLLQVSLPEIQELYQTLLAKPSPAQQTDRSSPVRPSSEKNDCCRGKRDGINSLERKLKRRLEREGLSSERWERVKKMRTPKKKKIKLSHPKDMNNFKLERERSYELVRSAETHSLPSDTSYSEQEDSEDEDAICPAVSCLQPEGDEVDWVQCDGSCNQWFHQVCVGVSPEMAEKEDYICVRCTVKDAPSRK
Assay: Primary screen for KDM5B Histone Demethylases FDH-coupled qHTS; note: nearly all actives have a fitted effect of over 70% in size; for activity change, negative = inhibition: 0% is about no effect
Conditions: FDH-coupled NADH fluorescence (FDH is formaldehyde dehydrogenase); activity change, negative = inhibition: at 57.7 µM (top of the series) unless noted
How it was run: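 Compound dilutions met 200 nM (final) KDM5BΔAP for 10 min at room temperature before substrate addition. The substrate mix held 12.5 µM H3K4me3 with cofactors 25 µM α-ketoglutarate and 50 µM Fe²⁺. NADH signal gain over 30 min defined activity.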
Potency is the fitted concentration of half-maximal effect; tags give direction and shape of the fitted curve.

| Compound | activity change, negative = inhibition | Potency |
| --- | --- | --- |
| CS(=O)(=O)Nc1ccc(C2(C(=O)NC3CCCCCC3)CCCCC2)cc1 | inactive: -5.38% | – |
| Cc1ccccc1NC1(c2nnnn2-c2ccccc2)CCCCC1 | inactive: -2.21% | – |
| Cc1ccc(-n2ncc(C(=O)N3CCN(c4cccc(C)c4)C(C)C3)c2C2CCN(C(=O)OC(C)(C)C)CC2)cc1 (stereo not given) | inconclusive: -32.3% [inhibitor] | – |
| Cn1c(C(=O)NCCN2CCOCC2)nc2nc(-c3ccccc3)c(Cl)cc21 | – | active: 35.5 µM |
| Cc1cccc(C)c1-c1nc(C(=O)NCc2cccnc2)n2ccccc12 | – | active: 25.1 µM |
| COc1cccc(OC)c1C(=O)N1CCN(Cc2cc(=O)oc3cc(C)ccc23)CC1 | inactive: -11.8% | – |
| CC(C)OC(=O)Cn1c(C2CC(=O)N(Cc3ccc(F)cc3)C2)nc2ccccc21 (stereo not given) | inactive: 6.06% | – |
| CCOC(=O)c1ccc(NC(=O)CN2C(=O)c3cccnc3Oc3ccc(Cl)cc32)cc1 | – | inconclusive: 17.8 µM [inhibitor, partial curve, poor fit] |
| Cc1noc(-c2cccn3c(CNC(=O)c4ccc5ccccc5n4)nnc23)n1 | – | inconclusive: 22.4 µM [inhibitor, partial curve, poor fit] |
| COC(=O)c1ccc(-c2ccc(/C=C(/C#N)c3nc4ccc(C)cc4[nH]3)o2)c(C)c1 | – | inconclusive: 22.4 µM [inhibitor, partial curve, poor fit] |
| CN(C)c1ccc(C(=O)N[C@H]2C[C@H]3C(=O)NC[C@@H](CCC(=O)N4CCCCC4)N3C2)cc1 | inactive: -22.1% | – |
| O=C(Nc1ccccc1C(=O)NC1CCCCC1)c1ccccc1 | – | inconclusive: 22.4 µM [inhibitor, partial curve, poor fit] |
| O=C(N[C@H]1[C@H](O)[C@H](O)C[C@@H]1c1ccc(N2CCOCC2)nc1)c1ccc2c(c1)OCCO2 | – | inconclusive: 39.8 µM [inhibitor, single point] |
| O=C(COC(=O)c1cc(S(=O)(=O)N2CCCC2)ccc1O)Nc1ccc(S(=O)(=O)N2CCOCC2)cc1 | – | inconclusive: 28.2 µM [inhibitor, single point] |
| CCC(Cn1cnc(-c2ccccc2)c1-c1ccc(C#N)cc1)N1CCN(C)CC1 (stereo not given) | – | inconclusive: 25.1 µM [inhibitor, partial curve, poor fit] |
| Cn1cc(-c2cn(C)c(=O)n3cc(CNc4ccccc4)nc23)cn1 | inactive: -6.23% [at 86.2 µM] | – |
| CCOc1ccc(NC(=O)N2CCOc3ccccc32)cc1 | – | inconclusive: 35.5 µM [inhibitor, single point] |
| N#Cc1ccc(-c2cccs2)nc1SCc1ccc(Cl)cc1Cl | – | inconclusive: 2.51 µM [inhibitor, full curve, poor fit] |
| COc1cccc(-c2cnc3[nH]cc(CC(=O)NCc4cccnc4)c3c2)c1 | – | inconclusive: 31.6 µM [inhibitor, partial curve, poor fit] |
| Cc1ccnc(NC(c2ccccc2F)c2ccc3cccnc3c2O)c1 (stereo not given) | – | inconclusive: 7.94 µM [inhibitor, partial curve, poor fit] |
| CCN1c2cc(C(=O)NCc3ccccc3Br)ccc2C(=O)N2CCCCC21 (stereo not given) | – | inconclusive: 25.1 µM [inhibitor, partial curve, poor fit] |
| CC(=O)Nc1cccc(C(=O)NCc2nnc3ccc(-c4ccc(C)cc4)nn23)c1 | – | inconclusive: 7.08 µM [inhibitor, single point] |
| Cn1c(CNc2ccccc2)c(C#N)c2ccccc21 | inactive: -20.6% | – |

| Compound | activity change, negative = inhibition | Potency |
| --- | --- | --- |
| CS(=O)(=O)N1CC2(CCN(C3CCCCC3)C2)Cc2ccccc21 (stereo not given) | inactive: -1.77% [at 149 µM] | – |
| Cc1ccccc1N1CCN(c2nc(-c3cccnc3)nc3ccccc23)CC1 | – | inconclusive: 28.2 µM [inhibitor, single point] |
| CCC1CCC(N(C)C(=O)c2ccc(OC(F)F)cc2)CC1 (stereo not given) | inactive: 3.83% | – |
| Cc1ccc(OCCSc2nc3ccccc3n2CC(=O)N2CCOCC2)c(C)c1 | – | inconclusive: 31.6 µM [inhibitor, single point] |
| O=C(NCC1CC1)C1CCCN(c2nc3ncccc3o2)C1 (stereo not given) | – | inconclusive: 12.6 µM [inhibitor, partial curve] |
| CC(C)N1CCC(CCNC(=O)CCC[C@H]2NC[C@@H]3C[C@H]2CN(Cc2ccccc2)C3)CC1 | – | inconclusive: 31.6 µM [inhibitor, partial curve, poor fit] |
| O=C(NCCOc1ccccc1)c1ccc2c(c1)OCCN(CCC(F)(F)F)C2 | inactive: -11.6% [at 86.2 µM] | – |
| CCCn1c(Cn2ccnc2C)nc2cc(NC(=O)c3ccccc3OC)ccc21 | inactive: 7.68% | – |
| CC(NC(=O)CCC(=O)c1ccc(F)cc1)C(=O)N1CCN(c2ccccn2)CC1 (stereo not given) | – | inconclusive: 28.2 µM [inhibitor, single point] |
| Cc1c(CCC(=O)O)c(=O)oc2c(C)c3occ(-c4ccc(Cl)cc4)c3cc12 | – | inconclusive: 39.8 µM [inhibitor, single point] |
| Cn1cc(-c2cnc3[nH]cc(CC(=O)Nc4ccccc4Cl)c3c2)cn1 | – | active: 31.6 µM |
| O=C(COc1ccc(F)cc1)N1CC(Oc2cccc(-c3nc(-c4ccccc4)no3)c2)C1 | – | inconclusive: 17.8 µM [inhibitor, partial curve] |
| CSc1ccc(CN2CCCCCC2c2sccc2C)cc1 (stereo not given) | – | inconclusive: 35.5 µM [inhibitor, single point] |
| Cc1ccc(C(CC(=O)Nc2ccc(F)cc2)c2c[nH]c3ccccc23)cc1 (stereo not given) | inactive: -17.9% | – |
| Cc1cc(NCc2cccnc2)n2ncc(-c3ccccc3)c2n1 | – | inconclusive: 25.1 µM [inhibitor, partial curve, poor fit] |
| CCO[C@H]1C[C@@H](O)C12CCN(C(=O)CCCc1ccccc1)CC2 | inactive: -27.7% | – |
| COc1ccc(C2=NS(=O)(=O)N(C)C(C(=O)N3CCN(C)CC3)=C2)cc1OC | inactive: -4.07% | – |
| CCC(CC)C(=O)Nc1cc(C)ccc1C | inactive: 21.5% | – |
| O=C(NCC1CCN(c2cc(-c3ccccc3)[nH]n2)CC1)c1ccc2nc[nH]c2c1 | inactive: -12.8% | – |
| COC(=O)c1c(C)sc2c1OC(N)=C(C#N)C21C(=O)N(Cc2ccccc2F)c2ccccc21 (stereo not given) | inactive: 13.5% | – |
| CN(CCc1ccccn1)c1ccc(-c2nc(COc3ccccc3)no2)cn1 | – | active: 28.2 µM |
| O=C(Nc1ccc2nc(SCC(=O)N3CCCC3)sc2c1)c1ccc(F)cc1 | – | inconclusive: 35.5 µM [inhibitor, partial curve, poor fit] |
